This is one part of the list. At the low end of the ranking, values are background and their order means little.
molecular target: GST-SBP-SLBP (stem-loop binding protein) (UniProt Q14493); assay: targeted RNA Bind-n-Seq; conditions: RBNS binding buffer: 25 mM Tris pH 7.5, 150 mM KCl, 3 mM MgCl2, 0.1% Tween, 0.5 mg/mL BSA, 1 mM DTT; 27 nM protein, 750 pM RNA pool; temperature not stated; high values mean tight binding;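 also: DESeq read counts versus GST-SBP nonspecific binding control pulldown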

Row | Sequence | binding signal (log2 fold change)
1 | GGUCACGUCUCAAUCAACUCUUUUCCCAGGGAAAUCCCUGGCUAUUUCAACAGCUCGCAGUCAAG | -0.0809
2 | GGUCACGUCUCAAUCAACUCUAUCUCAGGAGUUUCCUCCUGUAUACUCAACAGCUCGCAGUCAAG | 0.138
3 | GGUCACGUCUCAAUCAACUCAUGUCCAGGAGUUUCCUCCUGCUAUUUCAACAGCUCGCAGUCAAG | -0.126
4 | GGUCACGUCUCAAUCAACUCUUCUCCCAGGGAAACCCCUGGUAAAUUCAACAGCUCGCAGUCAAG | -0.306
5 | GGUCACGUCUCAAUCAACUCUCAAGAGGGGGGGAAAACCCCUUUACCCUCAUAAUCAACAGCUCGCAGUCAAG | 0.0676
6 | GGUCACGUCUCAAUCAACUCUAUCUCCAGGGAAAACCCUGGUAUACUCAACAGCUCGCAGUCAAG | -0.151
7 | GGUCACGUCUCAAUCAACUCUUCCGCAGGAGUUUUCUCCUGGUAUCUCAACAGCUCGCAGUCAAG | 0.0988
8 | GGUCACGUCUCAAUCAACUCAUUCUCAGGAGUUUCCUCCUGCUUAUUCAACAGCUCGCAGUCAAG | -0.0944
9 | GGUCACGUCUCAAUCAACUCCUCAGAGGGGGGGAAAACCCCUUUACCCUCACCGUCAACAGCUCGCAGUCAAG | -0.457
10 | GGUCACGUCUCAAUCAACUCAUUUUCAGGAGUUUACUCCUGUUUAUUCAACAGCUCGCAGUCAAG | 0.0507
11 | GGUCACGUCUCAAUCAACUCAUUCCCCAGGGAAACCCCUGGCAUUCUCAACAGCUCGCAGUCAAG | 0.113
12 | GGUCACGUCUCAAUCAACUCCCACGAGGGGGGGAAAACCCCUUUACCCUCUCAAUCAACAGCUCGCAGUCAAG | 0.362
13 | GGUCACGUCUCAAUCAACUCUUCCUCCAGGGAAAACCCUGGUUUACUCAACAGCUCGCAGUCAAG | 0.0285
14 | GGUCACGUCUCAAUCAACUCAUCUUCCAGGGAAAACCCUGGCAAUUUCAACAGCUCGCAGUCAAG | 0.0291
15 | GGUCACGUCUCAAUCAACUCUAUCCCCAGGGAAAACCCUGGCAUAUUCAACAGCUCGCAGUCAAG | -0.164
16 | GGUCACGUCUCAAUCAACUCAUCCUCAGGAGUUUACUCCUGCUAUUUCAACAGCUCGCAGUCAAG | 0.0661
17 | GGUCACGUCUCAAUCAACUCAUCCUCAGGAGUUUGCUCCUGUAUUCUCAACAGCUCGCAGUCAAG | 0.139
18 | GGUCACGUCUCAAUCAACUCAAUAGAGGGGGGGAAAACCCCUUUACCCUCACUCUCAACAGCUCGCAGUCAAG | -0.539
19 | GGUCACGUCUCAAUCAACUCUUCUCCCAGGGAAACCCCUGGCAAACUCAACAGCUCGCAGUCAAG | -0.0371
20 | GGUCACGUCUCAAUCAACUCUUUCCCCAGGGAAAACCCUGGCUAUGUCAACAGCUCGCAGUCAAG | -0.0315
21 | GGUCACGUCUCAAUCAACUCAUAAGAGGGGGGGAAAACCCCUUUGCCCUCCGUAUCAACAGCUCGCAGUCAAG | 0.269
22 | GGUCACGUCUCAAUCAACUCAGUUUCAGGAGUUUCCUCCUGCUUUCUCAACAGCUCGCAGUCAAG | -0.0496
23 | GGUCACGUCUCAAUCAACUCAAAAGAGGGGGGGAAAACCCCUUUACCCUCCACAUCAACAGCUCGCAGUCAAG | 0.0915
24 | GGUCACGUCUCAAUCAACUCCAUAGAGGGGGGGAAAACCCCUUUACCCUCCUUAUCAACAGCUCGCAGUCAAG | -0.388
25 | GGUCACGUCUCAAUCAACUCUAUAGAGGGGGGGAAAACCCCUUUGCCCUCAAUUUCAACAGCUCGCAGUCAAG | -0.222

Row | Sequence | binding signal (log2 fold change)
26 | GGUCACGUCUCAAUCAACUCUUUUCCAGGAGUUUUCUCCUGUUAACUCAACAGCUCGCAGUCAAG | -0.123
27 | GGUCACGUCUCAAUCAACUCUAAAGAGGGGGGGAAAACCCCUUUACCCUCCGAAUCAACAGCUCGCAGUCAAG | -0.644
28 | GGUCACGUCUCAAUCAACUCUUCCUCCAGGGAAAUCCCUGGCUUACUCAACAGCUCGCAGUCAAG | -0.00661
29 | GGUCACGUCUCAAUCAACUCUUUUUCAGGAGUUUCCUCCUGUUUACUCAACAGCUCGCAGUCAAG | 0.241
30 | GGUCACGUCUCAAUCAACUCUUUUCCCAGGGAAAACCCUGGUAUAUUCAACAGCUCGCAGUCAAG | -0.0799
31 | GGUCACGUCUCAAUCAACUCUUCUUCCAGGGAAAGCCCUGGCAAUGUCAACAGCUCGCAGUCAAG | 0.228
32 | GGUCACGUCUCAAUCAACUCCAUAGAGGGGGGGAAAACCCCUUUGCCCUCCAUUUCAACAGCUCGCAGUCAAG | 0.156
33 | GGUCACGUCUCAAUCAACUCUAGUCCAGGAGUUUUCUCCUGUAAAUUCAACAGCUCGCAGUCAAG | -0.164
34 | GGUCACGUCUCAAUCAACUCAUUCUCCAGGGAAAACCCUGGCAAUCUCAACAGCUCGCAGUCAAG | 0.187
35 | GGUCACGUCUCAAUCAACUCUACUUCCAGGGAAACCCCUGGUUAAUUCAACAGCUCGCAGUCAAG | -0.0515
36 | GGUCACGUCUCAAUCAACUCCAUAGAGGGGGGGAAAACCCCUUUACCCUCCACAUCAACAGCUCGCAGUCAAG | -0.22
37 | GGUCACGUCUCAAUCAACUCGUUUUCAGGAGUUUUCUCCUGCUUUUUCAACAGCUCGCAGUCAAG | -0.0955
38 | GGUCACGUCUCAAUCAACUCUUUAGAGGGGGGGAAAACCCCUUUGCCCUCAUCGUCAACAGCUCGCAGUCAAG | 0.0432
39 | GGUCACGUCUCAAUCAACUCCCACGAGGGGGGGAAAACCCCUUUACCCUCAACUUCAACAGCUCGCAGUCAAG | -0.368
40 | GGUCACGUCUCAAUCAACUCAUCGCCCAGGGAAAGCCCUGGUAUAUUCAACAGCUCGCAGUCAAG | -0.0256
41 | GGUCACGUCUCAAUCAACUCAUCCUCAGGAGUUUACUCCUGUAUUUUCAACAGCUCGCAGUCAAG | 0.164
42 | GGUCACGUCUCAAUCAACUCUAUUCCCAGGGAAAGCCCUGGCUUACUCAACAGCUCGCAGUCAAG | -0.062
43 | GGUCACGUCUCAAUCAACUCUUUUUCCAGGGAAAUCCCUGGUAUUUUCAACAGCUCGCAGUCAAG | -0.298
44 | GGUCACGUCUCAAUCAACUCAGUCCCAGGAGUUUACUCCUGCUUUCUCAACAGCUCGCAGUCAAG | -0.0425
45 | GGUCACGUCUCAAUCAACUCUUCCUCCAGGGAAAGCCCUGGCAUACUCAACAGCUCGCAGUCAAG | -0.0298
46 | GGUCACGUCUCAAUCAACUCUACGCCAGGAGUUUCCUCCUGUAUUUUCAACAGCUCGCAGUCAAG | 0.00566
47 | GGUCACGUCUCAAUCAACUCUUCCCCAGGAGUUUCCUCCUGCUUUCUCAACAGCUCGCAGUCAAG | 0.0304
48 | GGUCACGUCUCAAUCAACUCAUCUCCAGGAGUUUUCUCCUGCUAAGUCAACAGCUCGCAGUCAAG | -0.0227
49 | GGUCACGUCUCAAUCAACUCCAAAGAGGGGGGGAAAACCCCUUUGCCCUCAAUAUCAACAGCUCGCAGUCAAG | 0.359
50 | GGUCACGUCUCAAUCAACUCAAUCCCCAGGGAAAUCCCUGGCUUAUUCAACAGCUCGCAGUCAAG | -0.0543

Row | Sequence | binding signal (log2 fold change)
51 | GGUCACGUCUCAAUCAACUCUUUCUCCAGGGAAAACCCUGGUAAAUUCAACAGCUCGCAGUCAAG | -0.119
52 | GGUCACGUCUCAAUCAACUCACAAGAGGGGGGGAAAACCCCUUUACCCUCGUUAUCAACAGCUCGCAGUCAAG | -0.204
53 | GGUCACGUCUCAAUCAACUCUAUCUCCAGGGAAAGCCCUGGUAAUCUCAACAGCUCGCAGUCAAG | -0.221
54 | GGUCACGUCUCAAUCAACUCUUUUUCCAGGGAAAACCCUGGCAUUCUCAACAGCUCGCAGUCAAG | 0.0765
55 | GGUCACGUCUCAAUCAACUCAUUUUCCAGGGAAACCCCUGGCGUUUUCAACAGCUCGCAGUCAAG | -0.203
56 | GGUCACGUCUCAAUCAACUCAUCUUCAGGAGUUUCCUCCUGCAUUUUCAACAGCUCGCAGUCAAG | 0.139
57 | GGUCACGUCUCAAUCAACUCUAUCUCCAGGGAAAGCCCUGGCUAAUUCAACAGCUCGCAGUCAAG | -0.176
58 | GGUCACGUCUCAAUCAACUCUUCUCCAGGAGUUUUCUCCUGCAUAUUCAACAGCUCGCAGUCAAG | 0.0479
59 | GGUCACGUCUCAAUCAACUCCUACGAGGGGGGGAAAACCCCUUUACCCUCUCAUUCAACAGCUCGCAGUCAAG | 0.0844
60 | GGUCACGUCUCAAUCAACUCAACUUCCAGGGAAAUCCCUGGUUAAUUCAACAGCUCGCAGUCAAG | 0.106
61 | GGUCACGUCUCAAUCAACUCAACUCCAGGAGUUUUCUCCUGUUUUCUCAACAGCUCGCAGUCAAG | -0.00677
62 | GGUCACGUCUCAAUCAACUCAUUUUCAGGAGUUUUCUCCUGCUUAGUCAACAGCUCGCAGUCAAG | 0.152
63 | GGUCACGUCUCAAUCAACUCAUUCUCCAGGGAAACCCCUGGUAAUUUCAACAGCUCGCAGUCAAG | -0.192
64 | GGUCACGUCUCAAUCAACUCAUCCUCAGGAGUUUACUCCUGCUAAUUCAACAGCUCGCAGUCAAG | -0.0509
65 | GGUCACGUCUCAAUCAACUCAUCUCCAGGAGUUUACUCCUGCAAUUUCAACAGCUCGCAGUCAAG | 0.0648
66 | GGUCACGUCUCAAUCAACUCCUAAGAGGGGGGGAAAACCCCUUUACCCUCAUUCUCAACAGCUCGCAGUCAAG | -0.204
67 | GGUCACGUCUCAAUCAACUCUCUAGAGGGGGGGAAAACCCCUUUACCCUCAUCAUCAACAGCUCGCAGUCAAG | 0.113
68 | GGUCACGUCUCAAUCAACUCAAACGAGGGGGGGAAAACCCCUUUGCCCUCAUUAUCAACAGCUCGCAGUCAAG | 0.0544
69 | GGUCACGUCUCAAUCAACUCUUUCCCAGGAGUUUCCUCCUGCUUUUUCAACAGCUCGCAGUCAAG | -0.0378
70 | GGUCACGUCUCAAUCAACUCUUUCCCAGGAGUUUACUCCUGUAAUCUCAACAGCUCGCAGUCAAG | 0.000119
71 | GGUCACGUCUCAAUCAACUCUUUUUCCAGGGAAAGCCCUGGCUUAUUCAACAGCUCGCAGUCAAG | -0.155
72 | GGUCACGUCUCAAUCAACUCAACUCCAGGAGUUUACUCCUGUUAUCUCAACAGCUCGCAGUCAAG | -0.121
73 | GGUCACGUCUCAAUCAACUCAGUCCCCAGGGAAAGCCCUGGUAUAUUCAACAGCUCGCAGUCAAG | -0.12
74 | GGUCACGUCUCAAUCAACUCAAUCCCCAGGGAAACCCCUGGUUUUCUCAACAGCUCGCAGUCAAG | -0.00492
